Measurements as given in PubChem BioAssay AID1345083 (National Center for Advancing Translational Sciences (NCATS), 2018).
The whole screen tested about 94,000 compounds, of which about 6,200 (6.6%) were called active. This list was built around the results that the source calls inconclusive (neither active nor inactive); the mix of calls is not that of the screen. Calls come from the whole dose curve; as a rule, active = well fitted inhibition curve with a large enough effect; inconclusive = small, poorly fitted or top-dose-only effect; inactive = flat fitted curve, though single readings scatter. Potencies beside an inconclusive call are fits to weak or partial responses and may not hold up.

Assay: Cytotoxic Profiling in HEK 293 Cell Line of Diverse Libraries Using Quantitative High-Throughput Screening; note: nearly all actives have a fitted effect of over 60% in size
Conditions: HEK 293 viability, ATP luminescence (CellTiter-Glo), 48-72 h; activity change, negative = cytotoxicity: at 115 µM (top of the series) unless noted; series mostly up to 115 µM
Summary of the method: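 qHTS cytotoxicity; HEK 293, 250 cells/well; compound pinned; 48 or 72 hr, 37 degree Celsius, 5% CO2, 95% humidity; CellTiter-Glo, 10 min RT; luminescence (ATP).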
% is set by controls: 0 for no effect and ±100 for the full control effect; potency is the fitted concentration of half-maximal effect; tags give direction and shape of the fitted curve.

| SMILES | Potency | activity change, negative = cytotoxicity | outcome |
| --- | --- | --- | --- |
| Cc1ccc(Nc2ccnc(N3CCCN([S+](=O)([O-])c4c(C)noc4C)C3)n2)cc1 | inconclusive: 35.5 µM [inhibitor, partial curve, poor fit] |  |  |
| COc1ccc2[nH]c3c(c2c1)CCNC31CCN(S(=O)(=O)c2c(C)nn(C)c2C)CC1 | inconclusive: 8.91 µM [inhibitor, full curve, poor fit] |  |  |
| O=c1c2c(n(CCOc3ccccc3)n1-c1ccccc1)CN(Cc1ccc3c(c1)CCO3)CC2 | inconclusive: 50.1 µM [inhibitor, partial curve, poor fit] |  |  |
| COc1ccc(NC2CCCN(C(=O)C(=O)CC(C)C)C2)cc1OC (stereo not drawn) |  | inactive: 1.31% |  |
| CCc1ccc(CN2CCCC(CO)(Cc3ccc(F)cc3F)C2)cc1 (stereo not drawn) | inconclusive: 50.1 µM [inhibitor, partial curve, poor fit] |  |  |
| Cc1cc(C)c(CNC(=O)c2cc(-c3ccc(F)cc3)cc3ncn(C)c23)c(=O)[nH]1 | inconclusive: 100 µM [inhibitor, partial curve] |  |  |
| COCCOCc1nc(C2CCCCN2C(=O)Nc2ccc(OC)c(F)c2)no1 (stereo not drawn) |  | inactive: -6.76% |  |
| COc1ccccc1-c1cc(C(=O)NCCN2CCOCC2)nn2cnnc12 |  |  | inactive [at 172 µM] |
| Cn1cc(-c2ccncc2)cc1C(=O)N1CCN(c2ccc(F)cc2)CC1 | inconclusive: 56.2 µM [inhibitor, partial curve, poor fit] |  |  |
| CCc1cccc(NC(=O)[C@@H]2CN(S(C)(=O)=O)C[C@H]2c2ccncc2)c1 |  | inactive: -12.3% |  |
| Cc1cccnc1CNC[C@H]1O[C@@H]2C[C@@H](CC(=O)NCc3nccn3C)O[C@@H]2[C@@H]1O |  |  | inactive [at 172 µM] |
| O=C(Nc1cc(Cl)cc(Cl)c1)c1ccn2nccc2c1 |  | inactive: -37.4% [at 172 µM] |  |
| COc1ccc(CC2(CO)CCN(c3nccc(N)n3)CC2)cc1 | inconclusive: 50.1 µM [inhibitor, partial curve, poor fit] |  |  |
| COCC(=O)N[C@H]1C[C@@H](Cc2cc(CN(C)C)on2)C1(C)C |  | inactive: -5.52% [at 172 µM] |  |
| Cc1ccc(-c2noc([C@@H]3C[C@@H](O)CN3Cc3cccc(C#N)c3)n2)cc1F | inconclusive: 100 µM [inhibitor, partial curve, poor fit] |  |  |
| CCCNC(=O)CCC1CCN(c2cc(NCCC)ncn2)CC1 |  | inactive: 1.12% |  |
| CCOc1ccc(C(=O)NCCn2ccn3nc(-c4cc(C)ccc4C)cc3c2=O)cc1 | inconclusive: 50.1 µM [inhibitor, partial curve, poor fit] |  |  |
| NC(=O)c1cccc(-c2ccc3c(n2)CN(Cc2ccc(C(F)(F)F)cc2)C(=O)CO3)c1 | inconclusive: 56.2 µM [inhibitor, partial curve, poor fit] |  |  |
| c1c[nH]c(CNC[C@H]2Cn3ccnc3CO2)n1 |  | inactive: -7.47% [at 230 µM] |  |
| Cc1ccc(C2Cn3nnc(-c4noc(-c5ccccc5F)n4)c3CO2)cc1 (stereo not drawn) |  | inactive: -0.462% |  |
| Cc1nc(CN2CCOc3c(O)cc(-c4nc5ccccc5s4)cc3C2)no1 | inconclusive: 56.2 µM [inhibitor, partial curve, poor fit] |  |  |
| COc1ccc(NC(=O)c2cccc3c2CCN3C(=O)Nc2ccc(F)cc2)cc1 | inconclusive: 100 µM [inhibitor, single point] |  |  |

| SMILES | Potency | activity change, negative = cytotoxicity | outcome |
| --- | --- | --- | --- |
| COCCNC(=O)c1cc(-c2ccc(C(F)(F)F)cc2)nc2c1cnn2C | inconclusive: 79.4 µM [inhibitor, partial curve] |  |  |
| CNc1nccc(N2CCC(CC(=O)NCCC(C)C)CC2)n1 | active: 31.6 µM |  |  |
| Cc1noc2c(N(C)C)cc(-c3ccc(Cl)cc3)nc12 | inconclusive: 44.7 µM [inhibitor, full curve, poor fit] |  |  |
| CC(C)c1ccc(NC(=O)N[C@H]2CO[C@H]3[C@@H]2OC[C@H]3OCc2ccccc2)cc1 | inconclusive: 70.8 µM [inhibitor, full curve, poor fit] |  |  |
| Cc1cc(N2CCC(NCc3nc[nH]c3C)CC2)nc(-c2ccccc2O)n1 | inconclusive: 39.8 µM [inhibitor, full curve, poor fit] |  |  |
| O=C(NCCc1noc(-c2ccncc2)n1)c1ccccc1F |  | inactive: 2.43% |  |
| CN(CCO)c1ccc(C(=O)N2CCC(Oc3cccnc3)CC2)cn1 |  | inactive: -1.93% |  |
| O=C(NCc1cccc(Cl)c1)c1ccc2nc(-c3ccncc3)oc2c1 | inconclusive: 31.6 µM [inhibitor, full curve, poor fit] |  |  |
| CN(C)c1cccc(C(=O)N2CCC(n3cc(-c4nc(-c5ccccc5)no4)nn3)C2)c1 (stereo not drawn) | active: 28.2 µM |  |  |
| Cc1ccc(C(=O)N2CCC(N3C(=O)c4c(c(C)nn4-c4ccccc4)C3C3CC3)C2)cc1 (stereo not drawn) | active: 25.1 µM |  |  |
| COc1ccc(Cn2c(=O)c(C(=O)N3CCN(C(=O)c4ccc(C)cc4)CC3)nc3cccnc32)cc1 | inconclusive: 89.1 µM [inhibitor, single point] |  |  |
| O=C(Nc1cc(-c2ccncc2)nn1-c1ccccc1)c1ccc(Cl)nc1 | inconclusive: 89.1 µM [inhibitor, single point] |  |  |
| Cc1ccc(C(=O)N2CCN(Cc3ccccc3-c3ccc(C)c(Cl)c3)CC2)cc1 | active: 39.8 µM |  |  |
| CC#CCn1cc2c3c(cccc31)[C@H](CC(C)C)N[C@H](C(=O)NCc1cccs1)C2 | active: 70.8 µM |  |  |
| COc1ccccc1Nc1cnc2ccc(-c3cccc(CO)c3)nn12 | inconclusive: 56.2 µM [inhibitor, full curve, poor fit] |  |  |
| CCNC(=O)c1noc(-c2ccc[nH]c2=O)n1 |  | inactive: 10.7% |  |
| O=C(NCc1ccc2c(c1)OCO2)C1CCCN(Cc2cccc(-c3ccc(F)cc3F)c2)C1 (stereo not drawn) | inconclusive: 39.8 µM [inhibitor, partial curve, poor fit] |  |  |
| O=C1CCN(CC(O)Cc2ccccc2)c2ccccc2CN1C1CCCC1 (stereo not drawn) | inconclusive: 50.1 µM [inhibitor, partial curve, poor fit] |  |  |
| Cc1noc(CN(C)C(=O)c2ccc3oc(Cc4ccc(Cl)cc4)nc3c2)n1 | inconclusive: 50.1 µM [inhibitor, partial curve, poor fit] |  |  |
| c1ccc(O[C@H]2COCCN(CC3CC3)C2)cc1 |  | inactive: -1.04% [at 230 µM] |  |
| CC(C)C(=O)N1CCC(COc2ccc3c(cnn3CC[S+](C)(=O)[O-])c2)CC1 | inconclusive: 100 µM [inhibitor, partial curve] |  |  |
